Test results: the RNAGym collection of RNA variant scans (doi:10.1093/nar/gkz1192)
The source gives no read counts; variants with many changes may rest on few reads.

B1: CPEB3 Ribozyme (parent)
chain: UAACAGGGGGCCACAGCAGAAGCGUUCACGUCGCAGCCCCUGUCAGAUUCUGGUGAAUCUGCGAAUUCUGCUGUAUAUCUC

Variants of: B1
Test: self-cleavage, relative activity (ratio to wild type); higher = more cleavage; in vitro, sequencing
How it was run: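 For each CPEB3 ribozyme variant, relative activity is its cleaved/total read fraction divided by the unmutated ribozyme's. Barcoded error-prone PCR libraries were transcribed by T7 RNA polymerase (5 hours, 37°C) and held in DNase I for 15 min before an EDTA stop, with cleavage occurring throughout. Template-switching reverse transcription and Illumina sequencing were used to read the RNAs. A 5-read minimum applied, and results are the mean of three batches.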
Variant A3U U51G U60C has a self-cleavage of 0.78.
Variant A3U U54C A64G U69A U78C has a self-cleavage of 0.18.
A3U U54C A65G C71A U76C gave a self-cleavage of 0.31.
In the case of A3U U58A U66C U69C, the self-cleavage is reported as 0.16.
Variant A3U U58C U60C A64U has a self-cleavage of 0.57.
Work on A3U U60C A65G yielded a self-cleavage of 0.19.
Work on A3U U69C U80C yielded a self-cleavage of 0.5.
In the case of A3U U74A U78C, the self-cleavage is reported as 1.26.
Work on A3U U76A U78C yielded a self-cleavage of 1.05.
C4A A5G A15G A45U U49C U72C showed a self-cleavage of 0.26.
For C4A A5G A21G U78A, the self-cleavage was 0.62.
For C4A A5G C14A U43C A47U U54C U66C, the self-cleavage was 0.06.
C4A A13U A20U U67C U69C showed a self-cleavage of 0.2.
Variant C4A A15G U69C has a self-cleavage of 0.36.
C4A A18G U60C U72C showed a self-cleavage of 0.22.
In the case of C4A A20G A56G, the self-cleavage is reported as 0.55.
With C4A A20U U48C G63U the self-cleavage was 0.14.
For C4A A21G G22A G63A, the self-cleavage was 0.17.
Work on C4A A21G U54A A57G U67C yielded a self-cleavage of 0.26.
Variant C4A A28G U43A U58A has a self-cleavage of 0.23.
With C4A A35G U58C A77G the self-cleavage was 1.22.
For C4A A35U U43A A57G, the self-cleavage was 0.51.
Work on C4A A35U U49C yielded a self-cleavage of 0.21.
For C4A A45G U74A, the self-cleavage was 1.06.
Variant C4A A45U U54A has a self-cleavage of 0.66.
Variant C4A A57G A64G has a self-cleavage of 1.13.
With C4A A64G C79U the self-cleavage was 1.14.
Work on C4A C11U U69C U76A yielded a self-cleavage of 0.57.
C4A C23A U78C gave a self-cleavage of 0.36.
C4A C23G C38U U48C U49C U58G gave a self-cleavage of 0.1.
Work on C4A C29A C59G yielded a self-cleavage of 0.24.
C4A C29G U72C gave a self-cleavage of 0.39.
Variant C4A C29U C40G U41C U72C has a self-cleavage of 0.39.
C4A C40U A65G gave a self-cleavage of 0.15.
For C4A C71G U78C, the self-cleavage was 0.6.
Work on C4A U25C A28G G36A A45C yielded a self-cleavage of 0.1.
For C4A U26A A47G, the self-cleavage was 0.91.
In the case of C4A U26C C32G U43C U48C U74C U76C, the self-cleavage is reported as 0.07.
Variant C4A U26C G36A U48C has a self-cleavage of 0.35.
Work on C4A U26C U43C G55A yielded a self-cleavage of 0.35.
C4A U31G G53C A57G gave a self-cleavage of 0.62.
In the case of C4A U41C U69A U78C U80A, the self-cleavage is reported as 0.7.
In the case of C4A U60A G63U A77G, the self-cleavage is reported as 1.07.
C4A U60A U72G showed a self-cleavage of 0.89.
In the case of C4G A5G A15G, the self-cleavage is reported as 0.54.
C4G A5U C38U U49C gave a self-cleavage of 0.32.
C4G A5U U43A A45U gave a self-cleavage of 0.82.
In the case of C4G A13G A45C U58C U80C, the self-cleavage is reported as 0.06.
With C4G A13G A45G U67A the self-cleavage was 0.37.
C4G A13G G19A U60C C62G U67A U78C gave a self-cleavage of 0.07.
For C4G A13U A18G U49C U80C, the self-cleavage was 0.27.
In the case of C4G A13U C17G U54C U72A, the self-cleavage is reported as 0.11.
With C4G A13U U31C U49C the self-cleavage was 0.28.
Variant C4G A15G A18G A35U U69A has a self-cleavage of 0.12.
With C4G A18C U69C the self-cleavage was 0.53.
Work on C4G A18G A28G U43C yielded a self-cleavage of 0.29.
Work on C4G A18G A64U U69A U80C yielded a self-cleavage of 0.26.
Work on C4G A18G G30A U41A U78A yielded a self-cleavage of 0.26.
With C4G A18G U60C the self-cleavage was 0.35.
Work on C4G A20C U51A U74C U78A yielded a self-cleavage of 0.19.
Variant C4G A20U G63A A65G has a self-cleavage of 0.41.
For C4G A21G A56U U66C U80A, the self-cleavage was 0.97.
C4G A21G C29G U41C A57G showed a self-cleavage of 0.08.
With C4G A21G U72G the self-cleavage was 0.87.
For C4G A28G U51C A57G, the self-cleavage was 0.45.
Variant C4G A77G U80C has a self-cleavage of 1.15.
C4G C14U U25C U43A U49C U54C U69A gave a self-cleavage of 0.06.
For C4G C23U C27G A56G C62U U67C, the self-cleavage was 0.05.
C4G G8A A18G U58C C59A showed a self-cleavage of 0.
C4G G8C A28U A35U U51C G52A gave a self-cleavage of 0.06.
With C4G G9U A18U U41A U43A the self-cleavage was 0.08.
C4G G10A C12U C23U U74C gave a self-cleavage of 0.12.
Work on C4G U26C A35C U80A yielded a self-cleavage of 0.61.
In the case of C4G U31C U78A, the self-cleavage is reported as 1.16.
C4G U41A U51C A56U gave a self-cleavage of 0.25.
With C4G U43A G73A the self-cleavage was 1.28.
Work on C4G U48C U54C yielded a self-cleavage of 0.63.
Variant C4G U48C U60C has a self-cleavage of 0.32.
Variant C4G U54A A56G has a self-cleavage of 1.12.
For C4U A5G A13G A21U U58A U66C, the self-cleavage was 0.15.
C4U A5G A13G A21U U69A gave a self-cleavage of 0.39.
With C4U A5G A13U U41C U60A A64G U80A the self-cleavage was 0.23.
For C4U A5G A45G U58G U66A, the self-cleavage was 0.12.
Work on C4U A5G C23A U25A A57G A64U U66G yielded a self-cleavage of 0.06.
